Laboratory results from publication PMC9911399, “Two distinct binding modes provide the RNA-binding protein RbFox with extraordinary sequence specificity”.
Numbering of substitutions follows the chain as printed; changes in the protein carry UniProt numbers. The list shows a part of the results.

T1: RBFOX1 RRM RbFoxmut (Fox-RRM*) (Homo sapiens, UniProt Q9NWB1 109-208, R118D;E147R;N151S;E152T)
T1 sequence: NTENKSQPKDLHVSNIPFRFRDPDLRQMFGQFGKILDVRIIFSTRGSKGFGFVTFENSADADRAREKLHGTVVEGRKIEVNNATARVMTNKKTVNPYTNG

B1: GCGUUGU (DNA:RNA)
RNA: GGGAGACCGGAAUUCAGAUUGUCCGCGUUGUUUAAAUCCCGUCGUAGCCACCA
DNA 1: CAATCTGAATTCCGGTCTCCC
DNA 2: TGGTGGCTACGACGGGATT
B2: AAGUGGG (DNA:RNA)
RNA: B1 RNA with G25A, C26A, U29G, U31G
DNA 1: CAATCTGAATTCCGGTCTCCC
DNA 2: TGGTGGCTACGACGGGATT
B3: UAAACCU (DNA:RNA)
RNA: B1 RNA with G25U, C26A, G27A, U28A, U29C, G30C
DNA 1: CAATCTGAATTCCGGTCTCCC
DNA 2: TGGTGGCTACGACGGGATT
B4: CGUGGCA (DNA:RNA)
RNA: GGGAGACCGGAAUUCAGAUUGUCCCGUGGCAUUAAAUCCCGUCGUAGCCACCA
DNA 1: CAATCTGAATTCCGGTCTCCC
DNA 2: TGGTGGCTACGACGGGATT
B5: UACGCGC (DNA:RNA)
RNA: B4 RNA with C25U, G26A, U27C, G29C, C30G, A31C
DNA 1: CAATCTGAATTCCGGTCTCCC
DNA 2: TGGTGGCTACGACGGGATT
B6: GUCGAUA (DNA:RNA)
RNA: B4 RNA with C25G, G26U, U27C, G29A, C30U
DNA 1: CAATCTGAATTCCGGTCTCCC
DNA 2: TGGTGGCTACGACGGGATT
B7: AUAGAUU (DNA:RNA)
RNA: B4 RNA with C25A, G26U, U27A, G29A, C30U, A31U
DNA 1: CAATCTGAATTCCGGTCTCCC
DNA 2: TGGTGGCTACGACGGGATT
B8: AGAGUAG (DNA:RNA)
RNA: B4 RNA with C25A, U27A, G29U, C30A, A31G
DNA 1: CAATCTGAATTCCGGTCTCCC
DNA 2: TGGTGGCTACGACGGGATT
B9: UUGUACG (DNA:RNA)
RNA: B1 RNA with G25U, C26U, U29A, G30C, U31G
DNA 1: CAATCTGAATTCCGGTCTCCC
DNA 2: TGGTGGCTACGACGGGATT
B10: AGAUUUG (DNA:RNA)
RNA: B1 RNA with G25A, C26G, G27A, G30U, U31G
DNA 1: CAATCTGAATTCCGGTCTCCC
DNA 2: TGGTGGCTACGACGGGATT
B11: ACCCCUA (DNA:RNA)
RNA: B4 RNA with C25A, G26C, U27C, G28C, G29C, C30U
DNA 1: CAATCTGAATTCCGGTCTCCC
DNA 2: TGGTGGCTACGACGGGATT
B12: GCACUAA (DNA:RNA)
RNA: B1 RNA with G27A, U28C, G30A, U31A
DNA 1: CAATCTGAATTCCGGTCTCCC
DNA 2: TGGTGGCTACGACGGGATT
B13: GCGGAUU (DNA:RNA)
RNA: B1 RNA with U28G, U29A, G30U
DNA 1: CAATCTGAATTCCGGTCTCCC
DNA 2: TGGTGGCTACGACGGGATT
B14: CUACGAA (DNA:RNA)
RNA: B4 RNA with G26U, U27A, G28C, C30A
DNA 1: CAATCTGAATTCCGGTCTCCC
DNA 2: TGGTGGCTACGACGGGATT
B15: GCCAACA (DNA:RNA)
RNA: B4 RNA with C25G, G26C, U27C, G28A, G29A
DNA 1: CAATCTGAATTCCGGTCTCCC
DNA 2: TGGTGGCTACGACGGGATT
B16: CGACCUC (DNA:RNA)
RNA: B4 RNA with U27A, G28C, G29C, C30U, A31C
DNA 1: CAATCTGAATTCCGGTCTCCC
DNA 2: TGGTGGCTACGACGGGATT
B17: GAGGUUU (DNA:RNA)
RNA: B1 RNA with C26A, U28G, G30U
DNA 1: CAATCTGAATTCCGGTCTCCC
DNA 2: TGGTGGCTACGACGGGATT
B18: CUCAUAA (DNA:RNA)
RNA: B4 RNA with G26U, U27C, G28A, G29U, C30A
DNA 1: CAATCTGAATTCCGGTCTCCC
DNA 2: TGGTGGCTACGACGGGATT
B19: ACGUGCC (DNA:RNA)
RNA: B1 RNA with G25A, U29G, G30C, U31C
DNA 1: CAATCTGAATTCCGGTCTCCC
DNA 2: TGGTGGCTACGACGGGATT
B20: AAUCGGA (DNA:RNA)
RNA: B4 RNA with C25A, G26A, G28C, C30G
DNA 1: CAATCTGAATTCCGGTCTCCC
DNA 2: TGGTGGCTACGACGGGATT
B21: GCACCCG (DNA:RNA)
RNA: B1 RNA with G27A, U28C, U29C, G30C, U31G
DNA 1: CAATCTGAATTCCGGTCTCCC
DNA 2: TGGTGGCTACGACGGGATT
B22: CCAUAAG (DNA:RNA)
RNA: B1 RNA with G25C, G27A, U29A, G30A, U31G
DNA 1: CAATCTGAATTCCGGTCTCCC
DNA 2: TGGTGGCTACGACGGGATT
B23: GACAGCG (DNA:RNA)
RNA: B4 RNA with C25G, G26A, U27C, G28A, A31G
DNA 1: CAATCTGAATTCCGGTCTCCC
DNA 2: TGGTGGCTACGACGGGATT
B24: GUCUGGC (DNA:RNA)
RNA: B1 RNA with C26U, G27C, U29G, U31C
DNA 1: CAATCTGAATTCCGGTCTCCC
DNA 2: TGGTGGCTACGACGGGATT
B25: CGCGGGC (DNA:RNA)
RNA: B4 RNA with U27C, C30G, A31C
DNA 1: CAATCTGAATTCCGGTCTCCC
DNA 2: TGGTGGCTACGACGGGATT
B26: UUGUCGG (DNA:RNA)
RNA: B1 RNA with G25U, C26U, U29C, U31G
DNA 1: CAATCTGAATTCCGGTCTCCC
DNA 2: TGGTGGCTACGACGGGATT
B27: GAGGGUA (DNA:RNA)
RNA: B4 RNA with C25G, G26A, U27G, C30U
DNA 1: CAATCTGAATTCCGGTCTCCC
DNA 2: TGGTGGCTACGACGGGATT
B28: UUUUCCC (DNA:RNA)
RNA: B4 RNA with C25U, G26U, G28U, G29C, A31C
DNA 1: CAATCTGAATTCCGGTCTCCC
DNA 2: TGGTGGCTACGACGGGATT
B29: ACGGCCG (DNA:RNA)
RNA: B4 RNA with C25A, G26C, U27G, G29C, A31G
DNA 1: CAATCTGAATTCCGGTCTCCC
DNA 2: TGGTGGCTACGACGGGATT
B30: CCGAGUU (DNA:RNA)
RNA: B1 RNA with G25C, U28A, U29G, G30U
DNA 1: CAATCTGAATTCCGGTCTCCC
DNA 2: TGGTGGCTACGACGGGATT
B31: UCGGAUC (DNA:RNA)
RNA: B1 RNA with G25U, U28G, U29A, G30U, U31C
DNA 1: CAATCTGAATTCCGGTCTCCC
DNA 2: TGGTGGCTACGACGGGATT

What follows are binders tested against T1, RBFOX1 RRM RbFoxmut (Fox-RRM*) (assay: EMSA; HiTS-Eq, 1 nM pool, 10 min; buffer printed only for the single-RNA assays: 10 mM Tris pH 7.5, 150 mM NaCl, 3.4 mM EDTA, 0.001% NP-40, 30 C). Conditions: tags: His6 N-terminal (pET28a); label: 5' 32P.
Summary of the method: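 A pool of RNA with 7 randomized nucleotides, 5′-radiolabelled and with DNA-annealed flanks, was equilibrated at 1 nM for 10 min in 50 µL with purified RbFox RRM, wild type or mutant, across increasing protein concentrations. Free RNA was separated by 8% native PAGE, excised, reverse-transcribed, barcoded by PCR and sequenced. Relative association constants were obtained from read-count changes of each RNA species versus the control reaction and normalised to the cognate motif.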

Row | Binder | binding signal
1 | B1 | 0.149 KA relative to UGCAUGU
2 | B2 | 0.0945 KA relative to UGCAUGU
3 | B3 | 0.051 KA relative to UGCAUGU
4 | B4 | 0.156 KA relative to UGCAUGU
5 | B5 | 0.108 KA relative to UGCAUGU
6 | B6 | 0.127 KA relative to UGCAUGU
7 | B7 | 0.106 KA relative to UGCAUGU
8 | B8 | 0.175 KA relative to UGCAUGU
9 | B9 | 0.261 KA relative to UGCAUGU
10 | B10 | 0.0724 KA relative to UGCAUGU
11 | B11 | 0.0759 KA relative to UGCAUGU
12 | B12 | 0.105 KA relative to UGCAUGU
13 | B13 | 0.092 KA relative to UGCAUGU
14 | B14 | 0.105 KA relative to UGCAUGU
15 | B15 | 0.0733 KA relative to UGCAUGU
16 | B16 | 0.0473 KA relative to UGCAUGU

Row | Binder | binding signal
17 | B17 | 0.0889 KA relative to UGCAUGU
18 | B18 | 0.106 KA relative to UGCAUGU
19 | B19 | 0.275 KA relative to UGCAUGU
20 | B20 | 0.0605 KA relative to UGCAUGU
21 | B21 | 0.0882 KA relative to UGCAUGU
22 | B22 | 0.119 KA relative to UGCAUGU
23 | B23 | 0.0771 KA relative to UGCAUGU
24 | B24 | 0.132 KA relative to UGCAUGU
25 | B25 | 0.0882 KA relative to UGCAUGU
26 | B26 | 0.122 KA relative to UGCAUGU
27 | B27 | 0.168 KA relative to UGCAUGU
28 | B28 | 0.0312 KA relative to UGCAUGU
29 | B29 | 0.13 KA relative to UGCAUGU
30 | B30 | 0.0953 KA relative to UGCAUGU
31 | B31 | 0.111 KA relative to UGCAUGU
